In assay [1] the target is T1, endogenous CTCF tagged with the auxin-inducible degron and eGFP (CTCF-AID-eGFP) (mouse (endogenous in E14Tg2a mESC)) (UniProt Q61164).
T1 sequence: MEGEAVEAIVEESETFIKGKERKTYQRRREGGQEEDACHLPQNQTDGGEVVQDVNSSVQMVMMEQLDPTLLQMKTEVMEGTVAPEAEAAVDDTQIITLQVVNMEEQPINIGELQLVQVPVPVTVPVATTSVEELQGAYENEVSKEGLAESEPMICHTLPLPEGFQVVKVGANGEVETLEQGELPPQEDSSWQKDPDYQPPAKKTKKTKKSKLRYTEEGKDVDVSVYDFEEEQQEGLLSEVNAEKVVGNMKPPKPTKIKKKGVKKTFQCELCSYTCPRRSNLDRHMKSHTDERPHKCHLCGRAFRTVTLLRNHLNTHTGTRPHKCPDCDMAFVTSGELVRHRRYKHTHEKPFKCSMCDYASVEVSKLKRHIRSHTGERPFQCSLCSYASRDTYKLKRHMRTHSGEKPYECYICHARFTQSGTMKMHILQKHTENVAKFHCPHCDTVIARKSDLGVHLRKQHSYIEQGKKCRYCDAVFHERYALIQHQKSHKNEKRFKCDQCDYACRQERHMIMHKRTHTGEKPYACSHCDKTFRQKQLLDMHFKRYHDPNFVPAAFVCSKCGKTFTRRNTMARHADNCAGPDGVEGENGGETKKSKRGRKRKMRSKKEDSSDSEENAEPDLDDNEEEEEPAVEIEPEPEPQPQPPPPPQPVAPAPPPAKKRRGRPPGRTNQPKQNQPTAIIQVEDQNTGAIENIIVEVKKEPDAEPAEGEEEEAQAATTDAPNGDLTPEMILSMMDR
Kind of assay: co-IP; nuclear lysates (2 mg) of mESCs expressing the transgenes in the presence of endogenous CTCF-AID-eGFP; GFP-Trap magnetic beads 2 h at 4 °C pull down endogenous CTCF; blot with anti-FLAG against the transgenes.

Assay [2] has as its target T2, endogenous CTCF tagged with the auxin-inducible degron and eGFP (CTCF-AID-eGFP) (mouse (endogenous in E14Tg2a mESC)), Q61164.
T2 chain: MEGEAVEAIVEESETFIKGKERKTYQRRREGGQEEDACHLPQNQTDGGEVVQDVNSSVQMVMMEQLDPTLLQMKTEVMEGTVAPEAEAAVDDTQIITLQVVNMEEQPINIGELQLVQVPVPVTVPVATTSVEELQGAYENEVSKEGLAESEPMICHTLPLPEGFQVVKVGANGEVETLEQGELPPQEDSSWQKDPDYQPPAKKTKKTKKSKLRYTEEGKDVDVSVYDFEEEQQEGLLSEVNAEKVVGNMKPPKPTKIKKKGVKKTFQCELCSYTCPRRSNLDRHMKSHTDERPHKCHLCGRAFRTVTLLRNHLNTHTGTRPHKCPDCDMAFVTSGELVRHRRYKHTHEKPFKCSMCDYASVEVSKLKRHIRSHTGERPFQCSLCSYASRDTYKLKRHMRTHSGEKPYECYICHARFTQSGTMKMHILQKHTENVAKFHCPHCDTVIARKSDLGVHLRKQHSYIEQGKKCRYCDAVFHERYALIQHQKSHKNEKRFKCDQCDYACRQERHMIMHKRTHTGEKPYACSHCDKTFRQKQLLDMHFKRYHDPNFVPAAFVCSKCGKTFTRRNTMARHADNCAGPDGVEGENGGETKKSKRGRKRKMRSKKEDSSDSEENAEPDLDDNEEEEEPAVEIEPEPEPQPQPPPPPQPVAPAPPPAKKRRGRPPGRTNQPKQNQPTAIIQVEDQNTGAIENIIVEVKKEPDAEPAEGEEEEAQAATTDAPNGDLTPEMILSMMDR
The assay is described as above. The settings on record: remark: other sources report otherwise.

Binding data for four molecules are collected here from PMC7212617.

Results are given in words; binding and its absence hold for the method and conditions named. Binding seen in cells or lysates may run through a third protein. Some entries that bind do so weakly or less than the wild type. Where a sequence is shown, tags or fusion partners need not be part of it.

B1: CLC: CTCF N terminus - CTCFL zinc fingers - CTCF C terminus chimeric protein (protein, UniProt Q61164 1-265; A2APF3 259-568; Q61164 578-736)
chain: MEGEAVEAIVEESETFIKGKERKTYQRRREGGQEEDACHLPQNQTDGGEVVQDVNSSVQMVMMEQLDPTLLQMKTEVMEGTVAPEAEAAVDDTQIITLQVVNMEEQPINIGELQLVQVPVPVTVPVATTSVEELQGAYENEVSKEGLAESEPMICHTLPLPEGFQVVKVGANGEVETLEQGELPPQEDSSWQKDPDYQPPAKKTKKTKKSKLRYTEEGKDVDVSVYDFEEEQQEGLLSEVNAEKVVGNMKPPKPTKIKKKGVKKTCDTCPFTSSKLSTFNRHIKIHSNERPHLCHLCLKAFRTVTLLRNHVNTHTGTRPHKCRDCDMAFVTSGELVRHRRYKHTYEKPFKCSLCKYASVEASKMKRHIRSHTGERPFQCCQCAYASRDSYKLKRHMRTHSGEKPYECPTCHVRFTQSGTMKIHIAQKHGENVPKYECPHCATIIARKSDLRVHLRNLHSQSPEEMKCRYCPAGFHERYALIQHQRTHKNEKKFKCKQCDYACKQERCLKAHMRMHTGEKPFSCLACNKHFRQKQLLTVHLRKYHDPNFVPNLHLCLKCDKRFSRWSNLQRHRKKCAGPDGVEGENGGETKKSKRGRKRKMRSKKEDSSDSEENAEPDLDDNEEEEEPAVEIEPEPEPQPQPPPPPQPVAPAPPPAKKRRGRPPGRTNQPKQNQPTAIIQVEDQNTGAIENIIVEVKKEPDAEPAEGEEEEAQAATTDAPNGDLTPEMILSMMDR
With B1, the binding result in assay [1] is “binds”.

B2: transgenic CTCF (3x FLAG-CTCF-mRuby2), doxycycline-inducible, knocked in at the Tigre locus, Q61164 1-736 (protein)
chain: MEGEAVEAIVEESETFIKGKERKTYQRRREGGQEEDACHLPQNQTDGGEVVQDVNSSVQMVMMEQLDPTLLQMKTEVMEGTVAPEAEAAVDDTQIITLQVVNMEEQPINIGELQLVQVPVPVTVPVATTSVEELQGAYENEVSKEGLAESEPMICHTLPLPEGFQVVKVGANGEVETLEQGELPPQEDSSWQKDPDYQPPAKKTKKTKKSKLRYTEEGKDVDVSVYDFEEEQQEGLLSEVNAEKVVGNMKPPKPTKIKKKGVKKTFQCELCSYTCPRRSNLDRHMKSHTDERPHKCHLCGRAFRTVTLLRNHLNTHTGTRPHKCPDCDMAFVTSGELVRHRRYKHTHEKPFKCSMCDYASVEVSKLKRHIRSHTGERPFQCSLCSYASRDTYKLKRHMRTHSGEKPYECYICHARFTQSGTMKMHILQKHTENVAKFHCPHCDTVIARKSDLGVHLRKQHSYIEQGKKCRYCDAVFHERYALIQHQKSHKNEKRFKCDQCDYACRQERHMIMHKRTHTGEKPYACSHCDKTFRQKQLLDMHFKRYHDPNFVPAAFVCSKCGKTFTRRNTMARHADNCAGPDGVEGENGGETKKSKRGRKRKMRSKKEDSSDSEENAEPDLDDNEEEEEPAVEIEPEPEPQPQPPPPPQPVAPAPPPAKKRRGRPPGRTNQPKQNQPTAIIQVEDQNTGAIENIIVEVKKEPDAEPAEGEEEEAQAATTDAPNGDLTPEMILSMMDR
As to B2, the binding entry in assay [2] was “binds”.

B3: transgenic CTCFL (3x FLAG-CTCFL-mRuby2), doxycycline-inducible, knocked in at the Tigre locus (protein, UniProt A2APF3 1-636)
chain: MAAAEVPVPSGYFTQIKEQKLKPGDLEEEKEEDGVQRVEAQEGVVKEVEAENSCLLLEARAPVESDRRILTLQTVHLESQDVHLQGLGWLSVPHSEELSGTVPEAEGILQLPSVLWLDPEPQLSLQHCVTVSIPEELYPPEELQRIHFHLLRENVLMAEENPELTPDLDESTALKKPEEDEKDQLPPQGETDKREERLLLLEMKPKEGKDDEIVLTISHLSLEEQQDPPAANQTSVPGAKAAKPKRRRQTKGKPQSFQCDTCPFTSSKLSTFNRHIKIHSNERPHLCHLCLKAFRTVTLLRNHVNTHTGTRPHKCRDCDMAFVTSGELVRHRRYKHTYEKPFKCSLCKYASVEASKMKRHIRSHTGERPFQCCQCAYASRDSYKLKRHMRTHSGEKPYECPTCHVRFTQSGTMKIHIAQKHGENVPKYECPHCATIIARKSDLRVHLRNLHSQSPEEMKCRYCPAGFHERYALIQHQRTHKNEKKFKCKQCDYACKQERCLKAHMRMHTGEKPFSCLACNKHFRQKQLLTVHLRKYHDPNFVPNLHLCLKCDKRFSRWSNLQRHRKKCDPEHETLAPNKDRRPVTRTQASEGEAGHKEGEPQCPGEQALGHQGEAAGSQSPDHGLTCEIIFNMMDK
For B3, in assay [1], the binding result is listed as “no binding”.

B4: LCL: CTCFL N terminus - CTCF zinc fingers - CTCFL C terminus chimeric protein (protein, UniProt A2APF3 1-258; Q61164 266-577; A2APF3 569-636)
chain: MAAAEVPVPSGYFTQIKEQKLKPGDLEEEKEEDGVQRVEAQEGVVKEVEAENSCLLLEARAPVESDRRILTLQTVHLESQDVHLQGLGWLSVPHSEELSGTVPEAEGILQLPSVLWLDPEPQLSLQHCVTVSIPEELYPPEELQRIHFHLLRENVLMAEENPELTPDLDESTALKKPEEDEKDQLPPQGETDKREERLLLLEMKPKEGKDDEIVLTISHLSLEEQQDPPAANQTSVPGAKAAKPKRRRQTKGKPQSFQFQCELCSYTCPRRSNLDRHMKSHTDERPHKCHLCGRAFRTVTLLRNHLNTHTGTRPHKCPDCDMAFVTSGELVRHRRYKHTHEKPFKCSMCDYASVEVSKLKRHIRSHTGERPFQCSLCSYASRDTYKLKRHMRTHSGEKPYECYICHARFTQSGTMKMHILQKHTENVAKFHCPHCDTVIARKSDLGVHLRKQHSYIEQGKKCRYCDAVFHERYALIQHQKSHKNEKRFKCDQCDYACRQERHMIMHKRTHTGEKPYACSHCDKTFRQKQLLDMHFKRYHDPNFVPAAFVCSKCGKTFTRRNTMARHADNCDPEHETLAPNKDRRPVTRTQASEGEAGHKEGEPQCPGEQALGHQGEAAGSQSPDHGLTCEIIFNMMDK
On to B4, for which the binding entry in assay [1] was “binds”.
